{"source": "PubChem BioAssay AID1347417", "about": "(National Center for Advancing Translational Sciences (NCATS), 2020)", "note": "Out of some 120,000 compounds screened, about 5,300 (4.4%) were called active. This list was built around the results that the source calls inconclusive (neither active nor inactive); the mix of calls is not that of the screen. Calls follow the shape of the dose curve; as a rule, active = well fitted inhibition curve with a large enough effect; inconclusive = small, poorly fitted or top-dose-only effect; inactive = no such curve, though single readings can be large or run the other way. Potencies of inconclusive entries are doubtful fits and often do not repeat. Potency is read from the fitted curve at half-maximal effect; tags tell the direction and shape of the fitted curve."}
{"experiment": "qHTS Primary assay for Inhibitors of Plasmodium falciparum Dd2 growth in vitro; also: nearly all actives have a fitted effect of over 65% in size;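 as to activity, negative = inhibition: plate controls were DMSO vehicle for no effect and reference drug for full effect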", "conditions": "P. falciparum Dd2 growth, SYBR Green, 72 h; activity, negative = inhibition: at 28.9 µM (top of the series) unless noted; series mostly up to 28.9 µM", "summary_of_the_method": "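Readout: SYBR Green fluorescence, 485 nm excitation, 535 nm emission, after ~16 h lysis at 37C. Before that, Dd2-infected red cells (2.5% hematocrit) grew 72 h with compound, 29 uM top final concentration.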"}
{"smiles": "O=C(Nc1ccc2n(c1=O)C[C@H]1C[C@@H]2CN(C(=O)COc2ccccc2)C1)c1ccccc1", "Potency": "inconclusive: 8.91 µM [inhibitor, single point]"}
{"smiles": "Cc1ccc(C)n1-c1nnc(N2CCCC(C(=O)Nc3ccccc3Br)C2)s1", "note": "(configuration not stated)", "Potency": "inconclusive: 12.6 µM [inhibitor, single point]"}
{"smiles": "CCc1nc(-c2c3n(c(=O)n(Cc4cccc(OC)c4)c2=O)CCCC3)no1", "Potency": "inconclusive: 2 µM [inhibitor, single point]"}
{"smiles": "COc1cc2c(cc1Oc1cccc(N(C)C)c1)NC(=O)C21CCN(CCC(C)C)CC1", "Potency": "inconclusive: 2.51 µM [inhibitor, partial curve, poor fit]"}
{"smiles": "Cc1cccc(CC(=O)NCCC2CCN(C(=O)Nc3cc(F)cc(F)c3)CC2)c1", "Potency": "inactive"}
{"smiles": "COc1ccc(-c2nnc(C[C@@H]3C[C@@H](C(C)C)[C@H](CN4CCN(c5ncccn5)CC4)C=C3C)o2)cc1", "Potency": "inconclusive: 3.98 µM [inhibitor, full curve, poor fit]"}
{"smiles": "CCCS(=O)(=O)NC[C@H]1C[C@@H]2CCN1C[C@@H]2c1cc(-c2ccc(OC)c(OC)c2)nc(C)n1", "Potency": "inactive"}
{"smiles": "Cc1ncsc1CN1CC(Oc2cccc(C(=O)NCC3CC3)c2)C1", "Potency": "inconclusive: 1.58 µM [inhibitor, partial curve, poor fit]"}
{"smiles": "CCc1nc(-c2c3n(c(=O)n(Cc4cccc(F)c4)c2=O)CCCC3)no1", "Potency": "inconclusive: 0.891 µM [inhibitor, full curve]"}
{"smiles": "O=C(CCCCCn1c(=O)c2sccc2n(CC(=O)Nc2cc(C(F)(F)F)ccc2Cl)c1=O)NCc1ccccc1Cl", "Potency": "inconclusive: 10 µM [inhibitor, single point]"}
{"smiles": "CCCn1c(C)cnc1CC1CCCN(C(=O)c2ccncc2)C1", "note": "(configuration not stated)", "Potency": "inconclusive: 5.62 µM [inhibitor, partial curve, poor fit]"}
{"smiles": "COc1ccccc1-c1cc2c(ccn2C(C)C)c(C(=O)NCc2c(C)cc(C)[nH]c2=O)n1", "Potency": "inconclusive: 7.94 µM [inhibitor, partial curve, poor fit]"}
{"smiles": "COc1ccccc1-c1cc2nc(C)c(CCC(=O)NCCc3cccc(C)c3)c(C)n2n1", "Potency": "inconclusive: 10 µM [inhibitor, single point]"}
{"smiles": "CC(C)Oc1cc(F)cc(-c2cc(NCCO)ncn2)c1", "Potency": "inactive"}
{"smiles": "CC(C)c1nc2c(c(-c3ccc(Cl)cc3)n1)CCN(C(=O)c1ccccc1F)CC2", "Potency": "inconclusive: 17.8 µM [inhibitor, single point]"}
{"smiles": "Fc1ccc(-c2noc(-c3nc(-c4ccncc4)no3)n2)cc1F", "Potency": "inactive"}
{"smiles": "CC(C)(C)c1ccc(OCC(=O)NCC2(N3CCOCC3)CCCCC2)cc1", "Potency": "inconclusive: 20 µM [inhibitor, single point]"}
{"smiles": "COc1cc2c(cc1OC1CCCC1)NC(=O)C21CCN(c2ccc(C#N)cn2)CC1", "Potency": "inconclusive: 1.78 µM [inhibitor, partial curve, poor fit]"}
{"smiles": "Cc1ccccc1[C@H]1[C@@H](C(=O)NCCn2ccnc2)C[C@@](C)(C(=O)O)N1C", "Potency": "inactive"}
{"smiles": "CCCCN(CC)C(=O)c1nn(-c2ccc(OC)cc2)c(=O)c2c1c1ccccc1n2C", "Potency": "inconclusive: 17.8 µM [inhibitor, single point]"}
{"smiles": "COc1ccc(OC)c(CNC(=O)c2ccc3c(c2)c(C)c(C)n3C)c1", "Potency": "inactive"}
{"smiles": "O=C(Cn1c(=O)n(-c2ccccc2)c(=O)c2ccc(C(=O)NCc3ccc4c(c3)OCO4)cc21)Nc1ccc(Br)cc1", "Potency": "inconclusive: 10 µM [inhibitor, single point]"}
{"smiles": "CCS(=O)(=O)c1oc(-c2ccc(F)cc2)nc1S(=O)(=O)c1ccccc1", "Potency": "inconclusive: 11.2 µM [inhibitor, single point]"}
{"smiles": "O=C(CSc1nc2ncccc2o1)Nc1cccc(C(F)(F)F)c1", "Potency": "inconclusive: 14.1 µM [inhibitor, partial curve, poor fit]"}
{"smiles": "COc1ccccc1/C=C/CN1CCC(n2cc(CN(C)C)nn2)CC1", "Potency": "inconclusive: 10 µM [inhibitor, single point]"}
{"smiles": "Cc1ccc2nc(-c3ccc(C)o3)c(Nc3ccc4c(c3)OCCO4)n2c1", "Potency": "inactive"}
{"smiles": "Cc1cccc(-c2cnc3[nH]cc(CC(=O)N4CCOCC4)c3c2)c1", "Potency": "inactive"}
{"smiles": "COc1ccc(NC(=O)c2oc3ccccc3c2NC(=O)Cc2coc3ccc(C)cc23)cc1", "Potency": "inconclusive: 12.6 µM [inhibitor, single point]"}
{"smiles": "COC(=O)[C@@H]1Cc2c([nH]c3ccccc23)[C@H]2C[C@H](NCCNC(C)=O)C[C@@H](c3ccccc3)N21", "Potency": "inconclusive: 0.1 µM [inhibitor, single point]"}
{"smiles": "COc1ccc([S+](=O)([O-])c2nnn3c2nc(N2CCOCC2)c2ccccc23)cc1", "Potency": "inconclusive: 8.91 µM [inhibitor, single point]"}
{"smiles": "CC(C)CS(=O)(=O)Nc1ccc([C@H]2OCC(=O)N(Cc3ccc(F)cc3)[C@@H]2CO)cc1", "Potency": "inconclusive: 1.58 µM [inhibitor, partial curve]"}
{"smiles": "Cc1ccc(C(=O)NCCn2cccc2-c2nc(-c3ccc4c(c3)OCO4)no2)cn1", "Potency": "inactive"}
{"smiles": "Clc1ccccc1CSc1nnc(C2CCNCC2)o1", "Potency": "inconclusive: 11.2 µM [inhibitor, single point]"}
{"smiles": "CC(C)c1ccc(CNC(=O)c2ccc(Cn3ccn4nc5c(c4c3=O)CCCC5)cc2)cc1", "Potency": "inconclusive: 11.2 µM [inhibitor, single point]"}
{"smiles": "CCc1ccc(CN2CCC3(Cc4ccccc4CNC3=O)C2)s1", "note": "(configuration not stated)", "Potency": "inconclusive: 7.08 µM [inhibitor, partial curve, poor fit]"}
{"smiles": "O=C1CC(c2ccccc2)N(C(=O)CNC(=O)Cn2c(=O)oc3ccccc32)CCCCCN1", "note": "(configuration not stated)", "Potency": "inactive"}
{"smiles": "Cc1ccccc1CSc1nc(-c2cccc(F)c2)nc2c1Cc1c(CO)cnc(C)c1O2", "Potency": "inconclusive: 10 µM [inhibitor, single point]"}
{"smiles": "CCn1nc(C)c(-c2cc(C(=O)NCC3Cn4cccc4C(=O)N3C)no2)c1C", "note": "(configuration not stated)", "Potency": "inconclusive: 6.31 µM [inhibitor, partial curve, poor fit]"}
{"smiles": "O=C(O)CCC(=O)N1Cc2ccccc2CC2(CCCN(Cc3ccccc3)C2)C1", "note": "(configuration not stated)", "Potency": "inconclusive: 7.94 µM [inhibitor, partial curve, poor fit]"}
{"smiles": "COC(=O)c1ccc(NC(=O)CCc2c(C)nc3c(c(C)nn3C(C)(C)C)c2C)cc1", "Potency": "inconclusive: 12.6 µM [inhibitor, single point]"}
{"smiles": "CCN(C(=O)CSc1nc(-c2ccccc2)no1)c1ccccc1", "Potency": "active: 3.16 µM"}
{"smiles": "COC1CN(c2cccc(F)c2)C12CCN(C(=O)CC(C)C)CC2", "note": "(configuration not stated)", "Potency": "inconclusive: 6.31 µM [inhibitor, partial curve]"}
{"smiles": "O=C(Nc1ccc2nc(SCC(=O)N3CCOCC3)sc2c1)c1ccc(Br)cc1", "Potency": "inconclusive: 10 µM [inhibitor, single point]"}
{"smiles": "COc1ccc(C(=O)Nc2cc(-c3nc4ccccc4s3)ccc2OC)cc1", "Potency": "inconclusive: 0.158 µM [inhibitor, full curve, poor fit]"}
{"smiles": "O=C(c1ccc2c(c1)OCO2)N1CCc2nc(C3CC3)nc(-c3ccc(Cl)cc3)c2C1", "activity, negative = inhibition": "inconclusive: -106% [inhibitor]"}
{"smiles": "C=Cc1ccc(Cn2c(C(=O)O)c(CNC3CCCCC3)c3ccc(OC)cc32)cc1", "Potency": "active: 11.2 µM"}
{"smiles": "CCCOC1(C(F)(F)F)NC(=O)N(c2cccc(Cl)c2)C1=O", "note": "(configuration not stated)", "Potency": "inconclusive: 7.08 µM [inhibitor, partial curve, poor fit]"}
{"smiles": "COc1cccc(CNC(=O)C(=O)NCC(c2ccc3c(c2)OCO3)N2CCOCC2)c1", "note": "(configuration not stated)", "Potency": "inconclusive: 12.6 µM [inhibitor, partial curve, poor fit]"}
{"smiles": "CCN(CC)c1ncccc1CNC(=O)c1ncoc1C1CC1", "Potency": "inactive"}
{"smiles": "CN(C)CCC(=O)N1Cc2ccccc2CC2(CCCCN2Cc2cccnc2)C1", "note": "(configuration not stated)", "Potency": "inconclusive: 10 µM [inhibitor, single point]"}
{"smiles": "CCN1C(=O)COC[C@@H]1[C@H](O)c1ccc(NC(=O)COC)cc1", "Potency": "inactive"}
{"smiles": "CCOc1ccccc1C(=O)N1CCC[C@H]1c1nc(-c2ccccc2)no1", "Potency": "inactive"}
{"smiles": "CCn1c(=O)c(=O)n(CC)c2cc(N3CCCCC3)c(NC(=O)c3ccccc3OC)cc21", "Potency": "inconclusive: 0.398 µM [inhibitor, full curve, poor fit]"}
{"smiles": "CCOc1ccc(-c2nc(CSCC(=O)NCCc3ccc(OCC)c(OCC)c3)c(C)o2)cc1", "Potency": "inconclusive: 15.8 µM [inhibitor, partial curve, poor fit]"}
{"smiles": "CC(C)NC(=O)NCC1(COc2ccccc2)C[C@@H](O)[C@@H](O)C1", "note": "(some centres not stated)", "Potency": "inactive"}
{"smiles": "O=C(NCCc1ccccc1)c1ccc(Cn2c(SCc3ccccc3F)nc3cccnc32)cc1", "Potency": "inconclusive: 17.8 µM [inhibitor, single point]"}
{"smiles": "COC(=O)C1=C(C)N=C2SC=C(CC(=O)N3CCCC3)N2C1c1cc(OC)ccc1OC", "note": "(configuration not stated)", "Potency": "inconclusive: 2.24 µM [inhibitor, single point]"}
{"smiles": "C[C@H]1[C@@H]2[C@@H](O)C([C@H](C)C(=O)N(C)Cc3cccnc3)CC[C@@]2(C)CC[C@@H]1NC(=O)C1CCCCC1", "note": "(some centres not stated)", "Potency": "inconclusive: 17.8 µM [inhibitor, single point]"}
{"smiles": "CCc1ccc(NC(=O)CSc2nc(-c3cccc(OC)c3)nc3c2Cc2c(CO)cnc(C)c2O3)cc1", "Potency": "active: 3.55 µM"}
{"smiles": "CC(Oc1ccccc1)C(=O)Nc1ccccc1C(=O)OCc1cc(=O)n2nc(C(C)C)sc2n1", "note": "(configuration not stated)", "Potency": "inactive"}
{"smiles": "COCC(=O)N1CCCC(c2nc(C3CCOCC3)no2)C1", "note": "(configuration not stated)", "Potency": "inactive"}
{"smiles": "Cc1cc2oc(C(=O)Nc3cccc(-c4nc5ccccc5o4)c3)c(C)c2cc1C", "Potency": "inconclusive: 3.98 µM [inhibitor, full curve, poor fit]"}
